# Measured values published in PubChem BioAssay AID2675 (National Center for Advancing Translational Sciences (NCATS), 2010).
# Among all 280,000 compounds or so, about 100 (0.036%) were called active. This list was built around the results that the source calls inconclusive (neither active nor inactive); the mix of calls is not that of the screen. The call rests on the fitted dose curve; in most records, active means well fitted inhibition curve with a large enough effect in the signal ratio, with a control signal flat (not every such curve was filed as active); inconclusive means small, poorly fitted or top-dose-only effect, or effect the other way, or a change in a side signal; inactive means no such curve, though single readings can be large or run the other way; the % refers to the signal ratio. Potencies of inconclusive entries are doubtful fits and often do not repeat. “Side channel” marks fits to a control or component signal instead of the main read-out.
# Molecular target: Muscleblind-like protein 1 (Homo sapiens) (UniProt Q9NR56)
# UniProt Q9NR56, sequence (Q9NR56 whole entry, looked up): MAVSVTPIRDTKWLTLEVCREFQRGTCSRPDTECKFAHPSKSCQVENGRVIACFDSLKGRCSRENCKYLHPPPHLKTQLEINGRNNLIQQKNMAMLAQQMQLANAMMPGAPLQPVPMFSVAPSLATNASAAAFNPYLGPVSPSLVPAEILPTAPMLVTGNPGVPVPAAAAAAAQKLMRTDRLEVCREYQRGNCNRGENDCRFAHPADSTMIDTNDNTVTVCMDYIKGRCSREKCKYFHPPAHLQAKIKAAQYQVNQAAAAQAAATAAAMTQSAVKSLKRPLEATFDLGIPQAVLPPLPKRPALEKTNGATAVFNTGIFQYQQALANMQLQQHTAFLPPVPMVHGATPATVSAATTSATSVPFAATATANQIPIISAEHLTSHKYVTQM
# Test: qHTS Assay for Inhibitors of MBNL1-poly(CUG) RNA binding
# Details: TR-FRET MBNL1-His/biotin-(CUG)12 binding, 665/545 ratio; activity change, negative = inhibition: at 57.5 µM (top of the series)
# Procedure, shortened: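 MBNL1-His + Biotin-(CUG)12, cpd titration 92 nM–58 uM; Tb anti-His Ab 0.055 ng/ul, SA-XL665 5 nM (final); 60 min RT; ratiometric 665/545 nm, Ex 340 nm; normalized to buffer and full-complex controls.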
# On the % scale 0 is the no-effect control and ±100 the full control effect; potency means the concentration at half of the fitted maximal effect; tags describe the fitted curve by direction and shape or compound fluorescence and quenching.
Compound,Potency,"activity change, negative = inhibition"
Cc1cc(C(=O)Nc2ccc([N+](=O)[O-])cn2)cs1,"inconclusive: 12.6 µM [quencher, side channel, partial curve]",
CC12CCC(=O)N1C(C(=O)OCC(=O)Nc1cc(S(=O)(=O)N3CCCCC3)ccc1Cl)CS2 (stereo not drawn),"inconclusive: 3.55 µM [fluorescent, side channel, partial curve, poor fit]",
O=C(N/N=C\c1cccs1)c1sccc1-n1cccc1,"inconclusive: 22.4 µM [quencher, side channel, single point]",
COc1ccc2ccccc2c1CNCCN1CCOCC1,"inconclusive: 31.6 µM [quencher, side channel, single point]",
Fc1ccc(N2Cc3ccsc3C=N2)cc1,"inconclusive: 25.1 µM [quencher, side channel, partial curve]",
Cc1cc(C)cc(N2CCCC2=O)c1,"inconclusive: 10 µM [fluorescent, side channel, partial curve, poor fit]",
CN1CCN(C(=O)c2cc3nc(-c4ccc(Cl)cc4)cc(C(F)(F)F)n3n2)CC1,"inconclusive: 2 µM [quencher, side channel, partial curve, poor fit]",
COc1ccc(N(CC(=O)Nc2cccnc2)S(=O)(=O)c2ccccc2)cc1OC,inactive,
Cc1cc(C)n(-c2nc(Nc3ccccc3C(F)(F)F)nc(-n3nc(C)cc3C)n2)n1,inactive,
COc1ccc(-c2nc3n(c(=O)c2C#N)CCCS3)cc1,"inconclusive: 15.8 µM [quencher, side channel, single point]",
Brc1ccc(-c2ncc3ccccn23)cc1,"inconclusive: 17.8 µM [quencher, partial curve]",
CCOC(=O)Cc1nnc(Nc2ccc(C(=O)NC)cc2)c2ccccc12,"inconclusive: 31.6 µM [quencher, side channel, single point]",
CCC(=O)Nc1nc(-c2ccc3c(c2)CC(C)N3S(C)(=O)=O)cs1 (stereo not drawn),inactive,
O=C(CN1C(=O)CCC1=O)Nc1nc(-c2ccc(Oc3ccccc3)cc2)cs1,,inconclusive: 8.57% [phenotype inactive]
COc1ccc(S(=O)(=O)N2CCCC2)cc1C(=O)N1CCCCC1,inactive,
CC(C)(C)NC(=O)C1N(c2cccnc2)C(=O)C2C(C(=O)Nc3ccccc3)C3(C)C=CC21O3 (stereo not drawn),inactive,
COc1ccc(Nc2ccc3c(c2)=NC2(CCCCC2)[N+]=3[O-])cc1,"inconclusive: 11.2 µM [quencher, side channel, partial curve]",
O=[N+]([O-])c1cccc(CN2CCC(Cc3ccccc3)CC2)c1,"inconclusive: 31.6 µM [quencher, side channel, single point]",
N#C/C(=C/c1ccccc1[N+](=O)[O-])c1nc(C2CC2)cs1,"inconclusive: 14.1 µM [quencher, partial curve]",
CN=Cc1sc2ccccc2c1O,"inconclusive: 31.6 µM [quencher, side channel, partial curve]",
CN(CCC#N)C(=O)CSc1ncnc2sc(-c3ccccc3)cc12,"inconclusive: 15.8 µM [quencher, side channel, partial curve]",

Compound,Potency,"activity change, negative = inhibition"
CCCCCCCCCCOC(=O)Cn1c(COc2ccccc2)[n+](C)c2ccccc21,inactive,
COc1ccc(/C=N/n2c(N)nc3ccccc32)cc1OC,"inconclusive: 28.2 µM [quencher, side channel, partial curve]",
Cc1ccc(-n2nc3c(=O)n(CC(=O)c4ccc(F)cc4)nc(C)c3c2C)cc1,"inconclusive: 25.1 µM [inhibitor, single point]",
O=C(NCCCN1CCN(c2ccccc2F)CC1)C1CCC(=O)N1C1CCCC1 (stereo not drawn),inactive,
CC(=O)O/N=C(\N)c1cnn2c(C(F)(F)F)cc(C(F)(F)F)nc12,"inconclusive: 17.8 µM [quencher, side channel, partial curve]",
CCN(CC)CCn1c2ccccc2c2n[nH]c(=S)nc21,"inconclusive: 14.1 µM [quencher, side channel, partial curve]",
Cc1ccc(NC(=S)N(CCC(C)C)C(C)c2ccncc2)c(Cl)c1 (stereo not drawn),inactive,
O=C(OCCN1CCN(c2ncc(C(F)(F)F)cc2Cl)CC1)c1ccc(Cl)cc1,"inconclusive: 0.891 µM [quencher, side channel, single point]",
COc1ccc(/C(O)=C2/C(=O)C(=O)N(Cc3cccnc3)C2c2ccncc2)cc1F (stereo not drawn),"inconclusive: 28.2 µM [quencher, side channel, single point]",
CC1=NN(c2ccccc2)C(=O)/C1=C\C=C1/N(C)c2ccccc2C1(C)C,"inconclusive: 2.51 µM [quencher, partial curve]",
O=C(O)c1cccc(-n2c(/C=C/c3ccccc3)nc3ccccc3c2=O)c1,"inconclusive: 20 µM [quencher, side channel, partial curve]",
COc1ccc(S(=O)(=O)NNC(=O)c2cc3cc4ccccc4nc3s2)cc1,"inconclusive: 39.8 µM [quencher, side channel, single point]",
CCC(=O)NCCc1nc2ccccc2n1Cc1ccccc1,"inconclusive: 39.8 µM [quencher, side channel, single point]",
CCOC(=O)c1c(N)ssc1=S,inactive,
CNCCCCOc1ccccc1-c1ccccc1,inactive,
Cc1ccc(S(=O)(=O)NNC(=O)c2cc3cc4ccccc4nc3s2)cc1,"inconclusive: 6.31 µM [quencher, side channel, partial curve]",
CNc1cc(F)nc(F)n1,inactive,
O=C(N/N=C/c1cccnc1)c1cccc(Br)c1,"inconclusive: 31.6 µM [quencher, side channel, single point]",
COc1ccc(S(=O)(=O)NCc2csc(-c3cccnc3)n2)cc1,"inconclusive: 0.891 µM [quencher, side channel, single point]",
COc1cccc(C(=O)NNC(=O)/C=C/c2ccccc2)c1,"inconclusive: 20 µM [quencher, single point]",
NC(=O)CCn1c(C(=O)c2cc(Cl)c(N)c(Cl)c2)c2ccccc2[n+]1[O-],"inconclusive: 25.1 µM [quencher, side channel, single point]",

Compound,Potency,"activity change, negative = inhibition"
CCOC(=O)c1csc(-c2snnc2C)n1,"inconclusive: 14.1 µM [quencher, side channel, partial curve]",
COc1ccc(C(=O)NNC(=O)c2ccccc2[N+](=O)[O-])cc1[N+](=O)[O-],"inconclusive: 10 µM [quencher, side channel, partial curve]",
C=CCOn1c(=O)c(-c2ccc(OC)cc2)[n+]([O-])c2ccccc21,"inconclusive: 28.2 µM [quencher, single point]",
CCOC(=O)c1c(N)nn(C(=O)C(C)C)c1-c1ccc(OC)cc1,inactive,
CC1(C)OC(=O)C(=NNc2ccccc2)C(=O)O1,"inconclusive: 14.1 µM [quencher, side channel, partial curve]",
O=C(c1ccc2c3c(cccc13)CC2)C1CCCN(C(=O)c2cccnc2)C1 (stereo not drawn),"inconclusive: 31.6 µM [quencher, side channel, single point]",
CN1CCN(C2=C(Cl)C(=O)N(Cc3ccccc3)C2=O)CC1,"inconclusive: 14.1 µM [quencher, side channel, partial curve]",
Nc1c(C(=O)NCc2ccco2)sc2nc3c(cc12)C(=O)CCC3,"inconclusive: 8.91 µM [quencher, side channel, partial curve]",
O=C1CCCC2(O)C1C(c1cccc(Br)c1)NC(=O)N2Cc1ccccc1 (stereo not drawn),"inconclusive: 63.1 µM [inhibitor, partial curve]",
NC(=O)c1ccccc1N/C=C/C(=O)c1ccco1,"inconclusive: 12.6 µM [quencher, partial curve]",
COc1ccccc1-n1cc2c([N+](=O)[O-])cc([N+](=O)[O-])cc2n1,"inconclusive: 2.82 µM [quencher, full curve, poor fit]",
Cn1cc(C(=O)c2ccc(Cl)cc2Cl)cc1C(=O)N/N=C(\N)COc1cccc(C(F)(F)F)c1,inactive,
Cc1cc(C)c(S(=O)(=O)N2CCN=C2c2ccccc2)c(C)c1,"inconclusive: 0.282 µM [quencher, side channel, partial curve]",
Cc1cc(C)nc(Nc2ccc(Br)cc2C(=O)O)n1,"inconclusive: 28.2 µM [fluorescent, side channel, single point]",
Cc1ccc(-c2ccc(/C=N\NC(=O)C3C(=O)NCC3c3ccccc3)o2)cc1Cl (stereo not drawn),"inconclusive: 31.6 µM [quencher, side channel, single point]",
Cn1ccnc1/C(=N\NC(=O)c1ccc(O)cc1)c1cccc([N+](=O)[O-])c1,"inconclusive: 22.4 µM [quencher, side channel, partial curve]",
CCN(C(=O)Cn1cnc2cc([N+](=O)[O-])ccc2c1=O)C1CCS(=O)(=O)C1 (stereo not drawn),"inconclusive: 17.8 µM [quencher, side channel, partial curve]",
Cc1cc(C)c2ccc(C)[n+]([O-])c2c1O,"inconclusive: 35.5 µM [quencher, side channel, single point]",
O=C(Nc1ccccc1F)C1CCCN(S(=O)(=O)c2ccccc2)C1 (stereo not drawn),inactive,
COc1cccc(/C=C/C(=O)c2c(O)cc(C)oc2=O)c1O,inactive,
Cn1c2ccccc2c(=O)c2ccc(C#CC3(O)CCCCC3)cc21,"inconclusive: 20 µM [quencher, side channel, partial curve]",
